# Results taken from PubChem BioAssay AID1347073 (National Center for Advancing Translational Sciences (NCATS), 2019).
# About 200 (0.44%) of roughly 45,000 compounds were called active. Another 7% or so got no clear call; they are omitted. Calls come from the whole dose curve; as a rule, active = well fitted activation curve with a large enough effect; inconclusive = small, poorly fitted or top-dose-only effect; inactive = no such curve, though single readings can be large or run the other way. This is one part of the list.
# Assay: qHTS of TDP-43 Inhibitors: NCGC Sytravon Library Screen; note: 0% is about no effect; nearly all actives have a fitted effect of over 55% in size
# Details: yeast TDP-43 toxicity rescue, BacTiter-Glo growth, 24 h; series mostly up to 46.1 µM; growth rescue (activation): at the top concentration
# In short: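 TDP-43-expressing yeast, pregrown in raffinose, seeded at OD600 0.02 in galactose medium with compound for 24 hr at 30 deg C. Growth read by BacTiter-Glo luminescence, so rescue of toxicity appears as activation.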
row,SMILES,growth rescue (activation)
1,CCOC(=O)C1=C(O)C(=O)N(c2ccc(S(N)(=O)=O)cc2)C1c1ccc(Br)cc1 (stereo not given),inactive: 0.636%
2,COC(C(=O)Nc1ccnn1C1CCN(Cc2nccs2)CC1)c1ccccc1 (stereo not given),inactive: -2.03%
3,CC(=O)N/N=C\c1ccccc1OC/C=C/c1ccccc1,inactive: -15.8%
4,COc1c(Br)cc(Br)cc1/C=C1/C(=O)N=C(N)N1C,inactive: 2.96%
5,CS(=O)(=O)N1CCN(c2ccc(NC(=O)c3ccc([N+](=O)[O-])o3)cc2)CC1,inactive: -2.08%
6,O=C(/C=C/c1cccs1)c1ccc([N+](=O)[O-])cc1,inactive: 14.6%
7,O=C(NCCCN1CCOCC1)c1ccccc1,inactive: -1.84%
8,CC(=O)C1=C(O)C(=O)N(Cc2cccnc2)C1c1ccc(C(C)C)cc1 (stereo not given),inactive: -3.02%
9,CCOC(=O)C1=NNC2(CC(=O)N(c3cc(C)cc(C)c3)C2=O)C1 (stereo not given),inactive: -9.95%
10,COc1ccc(N2Cc3ccccc3C2=NC(=O)c2cccc([N+](=O)[O-])c2)cc1,inactive: 15.6%
11,O=C(NC(Cc1ccccc1)C(=O)N1CCc2ccccc2C1)c1ccccc1 (stereo not given),inactive: -10.3%
12,O=C(NC1=NCCS1)C1COc2ccccc2O1 (stereo not given),inactive: 22.1%
13,Cc1occc1C(=O)Nc1ccccc1C(=O)O,inactive: -18.2%
14,CCOc1ccc(NCc2cccn2-c2nnc(N3CCC(C(=O)NCc4ccc(C)cc4)CC3)s2)cc1,inactive: -2.7%
15,CC(C)(C)c1ccc(C(CC(=O)O)NC(=O)CCCc2ccccc2)cc1 (stereo not given),inactive: 13.8%
16,CC(Cl)C(=O)NC(=O)NC12CC3CC(CC(C3)C1)C2 (stereo not given),inactive: 10.6%
17,O=C(Nc1ccc(Cl)c(Cl)c1)C1CCN(C(=O)c2ccco2)CC1,inactive: 13.9%
18,Nn1c(Cc2cccc3ccccc23)nnc1SCc1ccccc1Cl,inactive: 22.6%
19,O=C(/C=C/c1cccc([N+](=O)[O-])c1)NCc1ccc2c(c1)OCO2,inactive: 13%
20,O=c1c2c(-c3ccccc3)csc2ncn1/N=C/c1ccc(O)c([N+](=O)[O-])c1,inactive: -7.58%
21,COc1ccc(OC)c(C(=O)/C=C/c2cccnc2)c1,inactive: -10.4%
22,CCC(C)NC(=O)COC(=O)c1cccnc1Nc1ccccc1F (stereo not given),inactive: 4.85%

row,SMILES,growth rescue (activation)
1,O=C(N/N=C/C(Cl)=C\c1ccccc1)c1cccs1,inactive: 14.5%
2,CN1CCc2nc3ccc(Cl)cc3c(-c3ccccc3Cl)c2C1,inactive: 12%
3,CC(=O)Nc1cccc(Oc2ncnc3scc(-c4ccccc4)c23)c1,inactive: 18.3%
4,COc1ccccc1NC(=O)CSc1nc2sc(C)c(C)c2c(=O)n1C,inactive: -14.6%
5,O=c1c2c([N+](=O)[O-])cc([N+](=O)[O-])cc2sn1Cc1ccccc1,inactive: -93.3%
6,O=C(CO/N=C/c1ccc(OC(F)F)cc1)NC1CCCCC1,inactive: 10.5%
7,COc1ccc(CCC(=O)Nc2ccccc2C(F)(F)F)cc1,inactive: 28.4%
8,CCCn1nc(NC(=O)c2cccs2)c2cc3cc(OC)ccc3nc21,inactive: 40.7%
9,COc1cc2c(cc1OC)CN(CC(=O)Nc1ccc(F)cc1)C(C(=O)O)C2 (stereo not given),inactive: 2.3%
10,COc1cccc(CNC(=O)C2CCN(S(=O)(=O)c3ccc(-n4cnnn4)cc3)CC2)c1,inactive: 8.23%
11,Cn1ncc(Cl)c1C(=O)N1CCN(c2ccc(F)cc2)CC1,inactive: 19.2%
12,CCCCN(CC)CCCNC(=O)C1CCN(c2nc3ccc(CC)cc3s2)CC1,inactive: 7.61%
13,COc1ccc(CCN(C)C(=O)c2cncc(Br)c2)cc1OC,inactive: -13.1%
14,COc1ccc(CCC(=O)NCc2nc3cccnc3n2Cc2ccc(C)cc2)cc1,inactive: 14.1%
15,CN=C1S/C(=C\c2ccc(N3CCCC3)c(F)c2)C(=O)N1C,inactive: 12.6%
16,O=S(=O)(c1ccc2c(c1)OCCO2)N1CCN(Cc2ccccc2)CC1,inactive: 17.5%
17,Cc1cccc(N2CCC(N=CN(C)C)=N2)c1,inactive: 2.29%
18,COC(=O)N/N=C(\C)c1ccc(OC(F)F)cc1OC(F)F,inactive: 4.78%
19,Cc1ccccc1N1CCN(S(=O)(=O)N(C)C)CC1,inactive: 8.07%
20,CCCc1nn(C)c(C(N)=O)c1[N+](=O)[O-],inactive: 3.01%
21,CC1(C)CC(NC(=O)CCc2ccccc2)CC(C)(C)N1,inactive: -24.6%
22,O=C(CN1CCC(NC(=O)C2CCCCC2)CC1)Nc1ccccc1,inactive: 4.7%

row,SMILES,growth rescue (activation)
1,Cn1cc(CN2CCCC(CO)(Cc3ccccc3)C2)cn1 (stereo not given),inactive: 2.48%
2,COC(=O)C1CCN(c2ccc([N+](=O)[O-])cc2[N+](=O)[O-])CC1,inactive: 14.6%
3,CC(=O)N1CCN(S(=O)(=O)c2cccc(C(=O)OCC(=O)NC(=O)c3cccn3C)c2)CC1,inactive: -13.9%
4,Cc1cccn2c(=O)c(/C=C(\C#N)C(=O)NC3CCS(=O)(=O)C3)c(Oc3ccccc3Cl)nc12 (stereo not given),inactive: -19.7%
5,COc1ccc(N2C(=O)CC(C#N)=C2N)cc1,inactive: 11.9%
6,CCOC(=O)C1=C(C(F)(F)F)Nc2ncnn2C1c1ccc(OC)cc1OC (stereo not given),inactive: 5.58%
7,COc1cc(/C=C2/SC(=S)N(Cc3ccccc3)C2=O)cc(OC)c1O,inactive: -29.5%
8,COC(=O)c1ccc(COC(=O)c2ccc(CO)cc2)o1,inactive: 27.4%
9,COc1ccc(CN(CC2CCC(C(=O)O)CC2)C(=S)Nc2ccccc2C)cc1 (stereo not given),inactive: 0.308%
10,COc1ccc(OC)c(NC(=O)NCCc2cccc(Cl)c2)c1,inactive: 8.21%
11,CSc1nsc(SC)c1C(=O)N1CCN(S(=O)(=O)c2ccc(C)cc2)C1C (stereo not given),inactive: -11.4%
12,COC(=O)/C(C#N)=C/c1c[nH]c2ccccc12,inactive: 17.1%
13,O=c1cc(NS(=O)(=O)c2ccccc2)nc(SCc2c(Cl)cccc2Cl)[nH]1,inactive: 9.29%
14,CC1(C(=O)NS(=O)(=O)c2ccc(Cl)s2)CCN1C(=O)Cc1ccc(Cl)cc1Cl (stereo not given),inactive: 16.7%
15,Cc1ccc(-c2csc(NC(=O)CN3CCOCC3)n2)cc1C,inactive: 5.1%
16,O=C(Nc1ccccc1)c1ccc(CN2CCC(Cc3ccccc3)CC2)cc1,inactive: 8.46%
17,CC(Oc1ccccc1)C(=O)Nc1ccc(NC(=O)c2ccccc2)cc1 (stereo not given),inactive: 1.17%
18,COCc1nnc(NC(=O)c2cc(OC)c(OC)cc2[N+](=O)[O-])s1,inactive: 15.4%
19,O=C(COC(=O)c1ccc(N2CCCC2=O)cc1)c1ccccc1,inactive: 2.93%
20,Cc1nc2cc(N3CCN(C)CC3)c(NC(=O)Cc3ccccc3)cc2c(=O)n1Cc1ccccc1,inactive: 20.4%
21,O=S(=O)(NCC1CCCO1)c1ccc(Cl)nc1 (stereo not given),inactive: 9.12%
22,O=C(O)C1CCCN(C(=O)/C=C/c2ccccc2)CC1 (stereo not given),inactive: 16.6%

row,SMILES,growth rescue (activation)
1,O=C(Oc1ccc(Br)cc1C(=S)N1CCOCC1)c1cccc([N+](=O)[O-])c1,inactive: 14.2%
2,O=C(C[n+]1cc(-c2ccccc2)n2c1CCC2)OCc1ccccc1,inactive: 5.55%
3,COCCNC(=O)CN(Cc1ccc(F)cc1)C(=O)CCC(=O)Nc1nccs1,inactive: 6.71%
4,Cc1ccc(O)c(NC(=S)NC(=O)C(C)C)c1,inactive: 9.9%
5,Cc1ccc(C2(c3noc(CN(C)CC4COCCO4)n3)CCCC2)cc1 (stereo not given),inactive: 3.96%
6,C=CCN1CC(O)=C(c2nc3ccccc3[nH]2)C1=N,inactive: 1.96%
7,Cc1cc(C(=O)Nc2ccon2)c(C)o1,inactive: 22.4%
8,CN(C)Cc1c(O)c(Cl)cc2c3c(c(=O)oc12)CCCC3,inactive: -3.42%
9,CCn1c(=O)c2c3c(sc2n2c(SCc4ccc(F)cc4)nnc12)CCCC3,inactive: 28.6%
10,COc1ccc(Cl)cc1NC(=S)NCCO,inactive: 8.79%
11,O=c1[nH]c(C2CCN(S(=O)(=O)c3ccc(S(=O)(=O)NC4CC4)cc3)CC2)nc2c1nnn2Cc1ccccc1,inactive: 4.53%
12,Cc1ccc(N(CC(=O)NC2CCCC2)C(=O)CNC(=O)c2cccs2)c(C)c1,inactive: 1.13%
13,Cc1ccc(S(=O)(=O)N/N=C/c2cccc3c2OCCO3)cc1,inactive: 12.6%
14,Cc1cccc(C)c1NC(=O)CNCC(=O)Nc1c(C)cccc1C,inactive: 11.5%
15,O=c1[nH]c(CN2CCN(c3ncccn3)CC2)nc2c(Br)cc(Br)cc12,inactive: 0.179%
16,CCCCN(CCCC)CC(O)COc1ccc(Br)cc1 (stereo not given),inactive: -6.49%
17,CC(=O)Nc1ccc(S(=O)(=O)Nc2cccn(Cc3ccc(C)cc3)c2=O)cc1,inactive: 2.1%
18,COC(=O)c1ccc(N2CCN(C)CC2)c(NC(=O)c2sc3ccccc3c2Cl)c1,inactive: -6.26%
19,Cc1nc2sc(-c3ccccc3)cc2c(=O)n1-n1cccc1,inactive: -23.2%
20,CN(C)c1ccnc(Nc2ccccc2)c1C#N,inactive: -2.6%
21,Cc1cc(C)c2nncn2n1,inactive: 1.96%
22,COc1ccc(S(=O)(=O)N2CCN(CC(=O)Nc3c(C)n[nH]c3C)CC2)cc1OC,inactive: -5.6%

row,SMILES,growth rescue (activation)
1,Nc1c2c(nn1-c1ccc(C(=O)O)cc1)CNC2,inactive: 5.92%
2,CSc1ccc(NC(=O)N2CCC(C(=O)c3ccc(F)cc3)CC2)cc1,inactive: -0.559%
3,Cc1ccc2c(c1)N(CC(=O)N1CCCCC1C)C(=O)CO2 (stereo not given),inactive: 6.9%
4,Cc1cc(=S)cc(C)n1CCO,inactive: 11.7%
5,CCOP(=O)(OCC)C(O)c1cc(OC)c(OC)c(OC)c1 (stereo not given),inactive: -2.89%
6,CC1CCCC(C)N1c1ccc(S(=O)(=O)N2CCOCC2)cc1Cl (stereo not given),inactive: 10.9%
7,Cc1occc1-c1nnc(SCC(=O)NCc2cccs2)n1CC1CCCO1 (stereo not given),inactive: 2.01%
8,CCOc1ccc(CCNC(=O)c2[nH]c(C)c(C(C)=O)c2CC)cc1OCC,inactive: 10.4%
9,Cc1ccc(CN(C(=O)COc2ccc(Cl)cc2C)C2CCS(=O)(=O)C2)o1 (stereo not given),inactive: 12%
10,COc1ccc(CCN2C(=NC(=O)C(C)C)SC3CS(=O)(=O)CC32)cc1 (stereo not given),inactive: 9.5%
11,COCCN(C(=O)CCCC(=O)Nc1ccccn1)C(C(=O)NC1CCCCC1)c1ccc(C)cc1 (stereo not given),inactive: -0.906%
12,CNC(=S)N1CCN(c2nc(-c3ccc(Cl)cc3)cs2)CC1,inactive: 6.35%
13,Cc1ccc(-n2nc(C(=O)O)c3ccccc3c2=O)cc1C,inactive: 25.6%
14,O=C(NC1CCCC1)C1CC(=O)N(c2ccc(F)cc2)C1 (stereo not given),inactive: -11.1%
15,O=C(Nc1ccc(Cl)cc1)/C(=C/c1cccc(O)c1)c1nc2ccccc2s1,inactive: 6.91%
16,CC(=O)N(C)c1ccc(NC(=O)Nc2ccccc2C)cc1,inactive: -0.344%
17,COc1ccc(Cl)cc1N1C(=O)CC(N2CCN(S(=O)(=O)c3ccccc3F)CC2)C1=O (stereo not given),inactive: 9.06%
18,COc1ccc(NC(=O)c2ccc(CNc3c(N4CCCC4)c(=O)c3=O)cc2)cc1Cl,inactive: 25.6%
19,Cc1ccc(NS(=O)(=O)c2ccc(OCC(=O)NCc3ccncc3)cc2)cc1,inactive: 3.56%
20,CCCc1nnc(SCC(=O)Nc2ccccc2Cl)n1CC1CCCO1 (stereo not given),inactive: -9.09%
21,N#Cc1ccccc1OCC(=O)Nc1ccc(S(=O)(=O)N2CCOCC2)cc1,inactive: 11.7%
22,Cc1ccccc1-c1cn(-c2ccccc2)c(=S)[nH]1,inactive: 0.942%
